{"source": "FireProtDB (doi:10.1006/jmbi.1999.3442)", "conditions": "Gallus gallus, Thermal, DSC, Sodium acetate 0.1 M, reversible: Unknown", "data": [{"substance": "Lysozyme C wild type (chain not printed)", "values": [{"measurement": "Tm", "setting": "pH 3.1", "value": 68.2, "unit": "°C"}, {"measurement": "Tm", "setting": "pH 3.7", "value": 75.9, "unit": "°C"}]}]}
